Measurements from the supplement of paper PMC12632987.
The full ranking holds about 1,800 sequences; the median of “median log2 fold change of GCK-ALFA target abundance (FLAG IP / Myc IP barcode read proportion)” is about 0.14, and the lowest 2% start at about -0.84. Some of the results follow.

T1: TRAF2, Q12933
T1 chain: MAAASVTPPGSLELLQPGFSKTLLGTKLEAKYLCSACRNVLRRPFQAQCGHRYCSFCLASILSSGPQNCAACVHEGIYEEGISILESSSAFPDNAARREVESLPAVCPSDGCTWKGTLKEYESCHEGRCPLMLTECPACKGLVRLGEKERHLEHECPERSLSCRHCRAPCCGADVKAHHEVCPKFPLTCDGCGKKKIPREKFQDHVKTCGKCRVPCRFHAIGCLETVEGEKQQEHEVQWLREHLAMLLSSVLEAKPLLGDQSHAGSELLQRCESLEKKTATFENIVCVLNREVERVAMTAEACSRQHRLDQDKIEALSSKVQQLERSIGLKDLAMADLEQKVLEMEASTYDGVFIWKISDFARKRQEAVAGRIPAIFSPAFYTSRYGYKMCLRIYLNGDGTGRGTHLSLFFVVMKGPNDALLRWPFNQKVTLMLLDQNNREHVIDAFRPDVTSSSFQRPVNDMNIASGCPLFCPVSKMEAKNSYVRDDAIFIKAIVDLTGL

B1: traf2_out_13_95_1077 (protein)
chain: SKETNEKIMEIADEMLDKVNEVLEELAEKVKDDPEMKAKVEEALHLATHRGINEAIHLLKKLAEENEEYKELLEEAIKKLEEIKEKAGKEVAKLLKEEEE
B2: traf2_out_5_63_2368 (protein)
chain: SEREKERKELTEEARRIEKVVREALKLSLEEAKKLVKEAIEEGLNINLIAGMFRAEARFLELQGGPEEEIEKARELAEYAEKLREEREAEEAAAAAAAAA
B3: traf2_out_13_95_1110 (protein)
chain: SKELAKKIMEISDKALDKADATLDALLAQLKASGKLAPEVEAALKAARKSTIRTAIHTLRELAEKYPEFKELFDAAIKELEAIKEEAGKEVAKLIKEEEE
B4: traf2_out_16_177_1446 (protein)
chain: ERDKLMDRLVILSHLRRAAELAVEGRLDEAREHLAKAREEAEEAGDEEGLELAERIEALIAEDTPEARAELAALARELQKEAQELAEEIEKLIKEEAEKE
B5: traf2_out_20_3_2137 (protein)
chain: EELKKELEKEKKKAIKLLKEAAKLADPETAEELKKLIKELKESEKLSPEDQLVKLSEIRRKVLRLAEEAKAAGKEELAKLLEKAAEELNKAMNLLMKIIE
B6: traf2_out_14_149_1253 (protein)
chain: SETEKKKKALKEAKKLMEEIKEILEKALKEGSTEVDKEKIKELVEKAKEILKKQGFVLGHLLAIEEMLETTKEWTLEKIKELKELVEKAAESLEVLAEML
B7: traf2_out_6_3_2525 (protein)
chain: SSESLRKDARKVLENMGITTAEQLLTLVTAEVNAVKKVASRPDFDRADVAGLRSVLALTRAMVEVAYEELPSVTEADKAEALALIADAEALVEAKAKELE
B8: traf2_out_15_17_1302 (protein)
chain: KLTPEQIKKEREAADRVLELSDRVTEEVLALVERLAARDPRAAPWLERVKAAARQSVRAALHVAREGAEALGDAEALAELERLWARYEEEVAKISKELNE
B9: traf2_out_13_95_1156 (protein)
chain: SKELAEKIMEIADEMLDRAEAVLEALLAQARAAGRLEEEVAEALHLARTRSINEAIHRLQELAAAHPEFAAELEAAIAELEALRREAGRKVAELIKEEKE
B10: traf2_out_11_169_891 (protein)
chain: EEAEKNRKIIDHALELNDEAVEKLKKYALELAKKAGLDEKEVEAIFEKNKGKSLSYVAAELIKYFRSKGKEDAAKAVEEKYEELKEEINKKSTAFIKSLE
B11: traf2_out_6_156_2376 (protein)
chain: TAAAILAAAEATIKAEIKELAKASEEKKIAHISRIAGAVYRALQALRDAGASVDELRAAGARLRATAEKAAKEAGLPQETRDLLLASIDAVTEVALREAA
B12: traf2_out_17_178_1700 (protein)
chain: SKEEIRKKISELTDELIDHADRYGTALLARLRAEGVLSPEELAALDAALASGSNRTLLATAEELIPRSAASPETRALLAEWRAETREIAKKIAEAYEKYE
B13: traf2_out_17_162_1645 (protein)
chain: MELEEEKEEIRRELEELEKRVEELEKKSENIEKYSKEELSDLIVEASEVKRRALELLQRIEELEDELEPEEYEELRSRAEEIIERAQEVANKFYKEYEKK
B14: traf2_out_12_187_971 (protein)
chain: SVEEELIEAARAALEQALRELEEAAPEDPRFRRFLERLREARELLARHPEVAADLAVAASLVLRAVRLRKAGLPEEEVERAAEEAERELEELLARLRALE
B15: traf2_out_9_108_2580 (protein)
chain: MTEEEKLEEKFKAILKLVEEFKKTVKLTPEQRESLEAAIKQAKELYEKGEKREAIVLLAIDLARIASEVGEEVTKELLEKLAEIDPIAASAAERMAKLLR
B16: traf2_out_8_144_2543 (protein)
chain: HMSRRELANRATNILVRLDELIKEADEETKEILTKARRHVGQALNLIVFDGPREEILEELEKAAKYLKEAIEKVKDNPELKEKVEKALEEVKEIIKNVKE
B17: traf2_out_19_16_1987 (protein)
chain: SMEEAEKLKKEMEEYLDKALKLAKEAVENIDKLSREELMDKLVEISELIRKAREKLQEYLKLAKDNPELRKEVTEKFDEKLDEIQKLMTKIVNKILELRK
B18: traf2_out_13_95_1228 (protein)
chain: SEETNEELRKISNDMLDKAEAVIDALEAQLAPHPELQPLMDEIRHALNNYGITAAIAKLREAAARFPEVRELLLAAAAELEAIRREAGKKVAEVLKKEEE
B19: traf2_out_16_177_1455 (protein)
chain: ELAKVMDRLVILSYIKRAALKIVEDNSPEAEEYLKEAREEAEAAGDEEGLKRIDEVEELAAENTPEAKERLKKLAEEAQREAQRLADEAERLIKERAEAE
B20: traf2_out_17_162_1552 (protein)
chain: SELEERWEELKRRLEELRKELEELKKELENLDKMSKEELTDLLVRASEARREARRLAEELRRLAPELGEEEAGRLRDEAERIAEELQRIANKIYEEILKK
B21: traf2_out_17_162_1533 (protein)
chain: SATDAELAALKKELEALEKELKKLEEKLKKLDELSKEEISDLLVEASELKRRALELAERLRKLAAETGSPEAKALAERAEAVAERLQRIANKIYKKLEEK
B22: traf2_out_16_177_1458 (protein)
chain: ELDRVMDRLVILSLIRRAALEIVRSNSPEAERYLAEARAEAEAAGDEEGLARIARIEELAAQNTPEARAELRALAAEAQREAQRLANEAERLIRERAAAE
B23: traf2_out_15_48_1338 (protein)
chain: STEALQAAARQINDAADKVREEVIKTLDELKPKVSPEVAKEIEELKAAAKAGAPLRTLLAKLEELKKKVSPEVAKKIEESAKKIRDTIKEGSKLMNEVLK
B24: traf2_out_11_131_659 (protein)
chain: MDAVATARSAAERVDAALAHAATLSPEERRRVARHALDTLEAVAEYLTAHAAEMSPAAVAEAVAILRAARARVLALDPSVAPEAAEVDAALAALLAAAAA
B25: traf2_out_20_3_2082 (protein)
chain: EELLKELEKELERAIKLLKEAAKKSDPETAARLEKLIEEIKASRELPLTDRLVVLSRVRREVLLLAQEAKAKGDEELAKILEEAADALNRAMNLLMKLIE
B26: traf2_out_11_169_825 (protein)
chain: KEAEFNRKVNDKALELNDEAIKELKEFALELAKEEGLDVEEVKAIFEKLKGASLSAVAAALIEYFKSKGKEEAAKKIEEKYEELKEKINKEMSKFLKELE
B27: traf2_out_15_48_1351 (protein)
chain: STEALLATAREVNDLIDATLDEVARELEALRPRVPPELRPLLDRAIELASRTGTITEVIALLRELRKRASPELAKELDELIERLEATRKEASALMNETLK
B28: traf2_out_16_171_1432 (protein)
chain: SAEEKEKKLKEEIKARRDSLIERMETMVEVAPLISKETGLSIEQIAKGVESTFTDKIEALEKELEEKAKDASPEVKKYMKEALKEIKEAREKALKEIKAL
B29: traf2_out_17_162_1544 (protein)
chain: SSLEEELAELEAELERLEKERERLESLLPELSKMSKEELTDLLVEASEARRRARLLAERIRELREEIGEERARELEERARRVAEELQRIANAIYKEILKK

Target: T1, TRAF2, Q12933
Experiment: median log2 fold change of GCK-ALFA target abundance (FLAG IP / Myc IP barcode read proportion) (log2 ratio); each designed protein is fused to an ALFA-tag nanobody in HEK293 cells to bring the named protein to FLAG-tagged glucokinase (GCK); Myc marks an untargeted standard; higher = target protein stabilised (more abundant)
Details: target protein: 3xFLAG-MCP-GCK-ALFA reporter; HEK293 landing pad (RPLP)
Outline: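 Sequencing of reverse-transcribed, amplified circular RNA barcodes from anti-FLAG and anti-Myc immunoprecipitates provided the readout for an ALFA-nanobody-fused binder library recombined into HEK293 landing-pad cells. Those cells were induced with 2 μg mL^−1 doxycycline, transfected with a plasmid expressing a FLAG-tagged target and a Myc-tagged standard, and lysed after 48 h. Target abundance is the per-binder median log2 ratio of FLAG to Myc barcode read proportions. Only barcodes at a proportion of ≥10^−7 in both replicates and binders with ≥3 barcodes per replicate were kept, with a 10^−6 pseudocount added before the two replicates were pooled.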

Binder	median log2 fold change
B1	-0.0213
B2	-0.0547
B3	0.188
B4	0.289
B5	1.07
B6	-0.0179
B7	-0.025
B8	0.221
B9	-0.645
B10	0.13
B11	-0.0213
B12	0.0128
B13	0.0751
B14	0.246
B15	0.0407
B16	0.238
B17	-0.716
B18	0.105
B19	0.194
B20	0.324
B21	0.192
B22	-0.327
B23	0.238
B24	-0.0419
B25	-0.0159
B26	0.317
B27	0.204
B28	-0.397
B29	0.31
